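Step 1: Grow cells in 96-well plates. Step 2: Expose to compound for 48 hours at 5 concentrations. Step 3: Interpolate endpoints linearly; if unreached, use highest concentration. GI50: concentration for 50% inhibition of growth.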 Certain results were filed several times, with different values. This is not the full list of results. The source may hold further records. For some of these results: The records of an entry repeat one measurement (runs, samples, wells, individuals or studies). Marks in square brackets tell the records apart. Letters hold for one entry only.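 TGI: concentration producing complete growth inhibition.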 For some of these results: Records of one sample usually come from different ranges of test concentrations, which the source does not state; a value can be the end of its range.
Tests used:
Experiment in all cases: NCI-60 cell line screen, 48 h
K-562 leukemia = tested on: K-562 leukemia
MDA-MB-231 breast = tested on: MDA-MB-231 breast
RPMI-8226 leukemia = tested on: RPMI-8226 leukemia
SK-OV-3 ovarian = tested on: SK-OV-3 ovarian
BT-549 breast = tested on: BT-549 breast
MDA-MB-435 = tested on: MDA-MB-435
DLD-1 colon = tested on: DLD-1 colon
KM20L2 colon = tested on: KM20L2 colon
LOX IMVI melanoma = tested on: LOX IMVI melanoma
LXFL 529 NSCLC = tested on: LXFL 529 NSCLC
M19-MEL melanoma = tested on: M19-MEL melanoma
MOLT-4 leukemia = tested on: MOLT-4 leukemia
NCI/ADR-RES ovarian = tested on: NCI/ADR-RES ovarian
OVCAR-5 ovarian = tested on: OVCAR-5 ovarian
RXF-631 renal = tested on: RXF-631 renal
SF-268 CNS = tested on: SF-268 CNS
SW-620 colon = tested on: SW-620 colon
DU-145 prostate = tested on: DU-145 prostate
HOP-62 NSCLC = tested on: HOP-62 NSCLC
M14 melanoma = tested on: M14 melanoma
NCI-H460 lung = tested on: NCI-H460 lung
PC-3 prostate = tested on: PC-3 prostate
RXF 393 renal = tested on: RXF 393 renal
SF-295 CNS = tested on: SF-295 CNS
SF-539 CNS = tested on: SF-539 CNS
SK-MEL-2 melanoma = tested on: SK-MEL-2 melanoma
A498 renal = tested on: A498 renal
COLO 205 colon = tested on: COLO 205 colon
HL-60(TB) leukemia = tested on: HL-60(TB) leukemia
KM12 colon = tested on: KM12 colon
MCF7 breast = tested on: MCF7 breast
NCI-H522 lung = tested on: NCI-H522 lung
OVCAR-3 ovarian = tested on: OVCAR-3 ovarian
SK-MEL-28 melanoma = tested on: SK-MEL-28 melanoma
SK-MEL-5 melanoma = tested on: SK-MEL-5 melanoma
SR leukemia = tested on: SR leukemia
UACC-62 melanoma = tested on: UACC-62 melanoma
DMS 114 small cell lung = tested on: DMS 114 small cell lung
DMS 273 small cell lung = tested on: DMS 273 small cell lung
HOP-92 NSCLC = tested on: HOP-92 NSCLC
HT29 colon = tested on: HT29 colon
MALME-3M melanoma = tested on: MALME-3M melanoma
NCI-H23 lung = tested on: NCI-H23 lung
SNB-75 CNS = tested on: SNB-75 CNS
U251 CNS = tested on: U251 CNS
XF 498 CNS = tested on: XF 498 CNS

O=c1cc(-c2cccc(OC(F)(F)F)c2)[nH]c2ccc(N3CCCC3)cc12
TGI (K-562 leukemia): 0.525 nM and > 100 µM | TGI (MDA-MB-231 breast): 176 nM and 12.6 µM | TGI (RPMI-8226 leukemia): 0.627 nM and > 100 µM | TGI (SK-OV-3 ovarian): 331 nM and 24.2 µM

CCCCCCCCCCCC/C=C\CC[C@@H](O)[C@H](O)CC[C@H](O)[C@@H]1CC[C@@H](CCCCCCCC2=C[C@H](C)OC2=O)O1
TGI (BT-549 breast): 3.02 µM and 34.1 µM | TGI (MDA-MB-435): 5.74 µM and 75.2 µM

COC(=O)[C@@]12OC[C@]34[C@H]([C@@H](O)[C@@H]1O)[C@@]1(C)CC(=O)C(O)=C(C)[C@@H]1C[C@H]3OC(=O)[C@H](OC(=O)/C=C(\C)C(C)C)[C@@H]24
TGI (DLD-1 colon): 5.16 nM and 107 nM | TGI (K-562 leukemia): 20.1 nM and 735 nM | TGI (KM20L2 colon): 0.753 nM and 118 nM | TGI (LOX IMVI melanoma): 2 nM, 3.59 nM, 25.8 nM | TGI (LXFL 529 NSCLC): 0.47 nM and 76.2 nM | TGI (M19-MEL melanoma): 0.521 nM and 21.2 nM | TGI (MOLT-4 leukemia): 0.76 nM, 6.92 nM, 590 nM | TGI (NCI/ADR-RES ovarian): 90.3 nM, 9.62 µM, 4.4 µM | TGI (OVCAR-5 ovarian): 1.47 nM, 35.2 nM, 61.9 nM | TGI (RXF-631 renal): 2.27 nM and 23.7 nM | TGI (SF-268 CNS): 41.9 nM, < 13.4 nM, 215 nM | TGI (SW-620 colon): 27.5 nM, < 10.4 nM, 1.31 µM

CCCC(=O)Nc1cc(C(=O)N2C[C@H]3C[C@@]34C2=CC(=O)c2[nH]cc(C)c24)n(COC)c1
TGI (BT-549 breast): 11 µM and 520 nM | TGI (DU-145 prostate): 1.05 µM and 11 µM | TGI (HOP-62 NSCLC): 12.4 µM and 352 nM | TGI (M14 melanoma): 8.39 µM and 394 nM | TGI (MOLT-4 leukemia): 52.7 nM and 18.2 µM | TGI (NCI-H460 lung): 3.97 µM and 381 nM | TGI (PC-3 prostate): 50 µM and 414 nM | TGI (RXF 393 renal): 39.4 µM and 224 nM | TGI (SF-295 CNS): 6.55 µM and 580 nM | TGI (SF-539 CNS): 2.81 µM and 273 nM | TGI (SK-MEL-2 melanoma): 50 µM and 257 nM

COc1cc(C(=O)c2cnc(-c3c[nH]c4cccc(C)c34)[nH]2)cc(OC)c1OC
TGI (MDA-MB-231 breast): 316 nM and 35 µM | TGI (NCI/ADR-RES ovarian): 96.9 nM and > 100 µM

CN(C)CCCN1c2ccccc2Sc2ccc(C(F)(F)F)cc21
TGI (A498 renal): 32.2 µM [sample A] and 2.33 µM [sample B] | TGI (COLO 205 colon): 30.4 µM [sample A] and 34.5 µM [sample B] and 2.67 µM [sample C] | TGI (HL-60(TB) leukemia): 39.7 µM [sample A] and 36.7 µM [sample B] and 3.73 µM [sample C] | GI50 (HOP-62 NSCLC): 16.1 µM [sample A, 1 test] and > 100 µM [sample B, 1 test] and 1.54 µM [sample C, 1 test] | TGI (HOP-62 NSCLC): 30.4 µM [sample A, 1 test] and > 100 µM [sample B, 1 test] and 2.87 µM [sample C, 1 test] | TGI (KM12 colon): 29.7 µM [sample A] and 31.1 µM [sample B] and 3.07 µM [sample C] | GI50 (M14 melanoma): 6.08 µM [sample A, 1 test] and > 100 µM [sample B, 1 test] and 1.78 µM [sample C, 1 test] | TGI (M14 melanoma): 21.6 µM [sample A, 1 test] and > 100 µM [sample B, 1 test] and 3.37 µM [sample C, 1 test] | TGI (MCF7 breast): 32.6 µM [sample A] and 2.95 µM [sample B] | TGI (MDA-MB-435): 30.3 µM [sample A] and 3.03 µM [sample B] | TGI (NCI-H460 lung): 29.1 µM [sample A] and 30.8 µM [sample B] and 2.95 µM [sample C] | TGI (NCI-H522 lung): 34.8 µM [sample A] and 33.7 µM [sample B] and 2.92 µM [sample C] | GI50 (OVCAR-3 ovarian): 13.8 µM [sample A, 1 test] and > 100 µM [sample B, 1 test] and 1.67 µM [sample C, 1 test] | TGI (OVCAR-3 ovarian): 27.3 µM [sample A, 1 test] and > 100 µM [sample B, 1 test] and 3.13 µM [sample C, 1 test] | TGI (RXF 393 renal): 31.7 µM [sample A] and 26.8 µM [sample B] and 2.67 µM [sample C] | TGI (SF-539 CNS): 34.6 µM [sample A] and 28.5 µM [sample B] and 3.44 µM [sample C] | TGI (SK-MEL-28 melanoma): 28.5 µM [sample A] and 30.5 µM [sample B] and 3.05 µM [sample C] | TGI (SK-MEL-5 melanoma): 31.6 µM [sample A] and 2.91 µM [sample B] | TGI (SK-OV-3 ovarian): 30.1 µM [sample A] and 34.3 µM [sample B] and 2.86 µM [sample C] | TGI (SR leukemia): 57.1 µM [sample A] and 40.5 µM [sample B] and 5.7 µM [sample C] | TGI (SW-620 colon): 29.3 µM [sample A] and 31.5 µM [sample B] and 2.92 µM [sample C] | TGI (UACC-62 melanoma): 31.2 µM [sample A] and 30.8 µM [sample B] and 2.79 µM [sample C]

CC1[C@@]2(CCC(C)(C)O2)O[C@@H]2C=C3C4CCC5Cc6nc7c(nc6C[C@@]5(C)C4C[C@H](O)[C@@]3(C)[C@]12O)CC1CCC2C3=C[C@H]4O[C@@]5(O[C@@](C)(CO)C[C@@H]5O)C(C)[C@@]4(O)[C@]3(C)[C@@H](O)CC2[C@]1(C)C7 (stereo not given in full)
TGI (DMS 114 small cell lung): 498 nM and 18.2 nM | TGI (DMS 273 small cell lung): 48.2 nM and 1.47 nM | TGI (HOP-62 NSCLC): 120 nM and 2.34 nM | TGI (HOP-92 NSCLC): 413 nM and 34.1 nM | TGI (HT29 colon): 489 nM and 37.8 nM | TGI (MALME-3M melanoma): 831 nM and 69.9 nM | TGI (MOLT-4 leukemia): 59 nM and 1 µM | TGI (NCI-H23 lung): 787 nM and 38.1 nM | TGI (OVCAR-5 ovarian): 682 nM and 55.2 nM | TGI (RXF 393 renal): 39.8 nM and 0.385 nM | TGI (SF-295 CNS): 24.4 nM and 0.804 nM | TGI (SK-MEL-2 melanoma): 440 nM and 41.4 nM | TGI (SK-OV-3 ovarian): 323 nM and 19.3 nM | TGI (SNB-75 CNS): 129 nM and 1.99 nM | TGI (U251 CNS): 852 nM and 37.9 nM | TGI (UACC-62 melanoma): 207 nM and 10.8 nM | TGI (XF 498 CNS): 993 nM and 36 nM

Source: PubChem BioAssay (NCI)
